Results on three molecules are retold here after the supplement of paper PMC12423691.

To fix the notation:
B1: XCL1, P47992 (protein)
chain: MRLLILALLGICSLTAYIVEGVGSEVSDKRTCVSLTTQRLPVSRIKTYTITEGSLRAVIFITKRGLKVCADPQATWVRDVVRSMDRKSNTRNNMIQTKPTGTQQSTNTAVTLTG
B2: TCF21, O43680 (protein)
chain: MSTGSLSDVEDLQEVEMLECDGLKMDSNKEFVTSNESTEESSNCENGSPQKGRGGLGKRRKAPTKKSPLSGVSQEGKQVQRNAANARERARMRVLSKAFSRLKTTLPWVPPDTKLSKLDTLRLASSYIAHLRQILANDKYENGYIHPVNLTWPFMVAGKPESDLKEVVTASRLCGTTAS
B3: RAI1, Q7Z5J4 (protein)
chain: MQSFRERCGFHGKQQNYQQTSQETSRLENYRQPSQAGLSCDRQRLLAKDYYNPQPYPSYEGGAGTPSGTAAAVAADKYHRGSKALPTQQGLQGRPAFPGYGVQDSSPYPGRYAGEESLQAWGAPQPPPPQPQPLPAGVAKYDENLMKKTAVPPSRQYAEQGAQVPFRTHSLHVQQPPPPQQPLAYPKLQRQKLQNDIASPLPFPQGTHFPQHSQSFPTSSTYSSSVQGGGQGAHSYKSCTAPTAQPHDRPLTASSSLAPGQRVQNLHAYQSGRLSYDQQQQQQQQQQQQQQALQSRHHAQETLHYQNLAKYQHYGQQGQGYCQPDAAVRTPEQYYQTFSPSSSHSPARSVGRSPSYSSTPSPLMPNLENFPYSQQPLSTGAFPAGITDHSHFMPLLNPSPTDATSSVDTQAGNCKPLQKDKLPENLLSDLSLQSLTALTSQVENISNTVQQLLLSKAAVPQKKGVKNLVSRTPEQHKSQHCSPEGSGYSAEPAGTPLSEPPSSTPQSTHAEPQEADYLSGSEDPLERSFLYCNQARGSPARVNSNSKAKPESVSTCSVTSPDDMSTKSDDSFQSLHGSLPLDSFSKFVAGERDCPRLLLSALAQEDLASEILGLQEAIGEKADKAWAEAPSLVKDSSKPPFSLENHSACLDSVAKSAWPRPGEPEALPDSLQLDKGGNAKDFSPGLFEDPSVAFATPDPKKTTGPLSFGTKPTLGVPAPDPTTAAFDCFPDTTAASSADSANPFAWPEENLGDACPRWGLHPGELTKGLEQGGKASDGISKGDTHEASACLGFQEEDPPGEKVASLPGDFKQEEVGGVKEEAGGLLQCPEVAKADRWLEDSRHCCSTADFGDLPLLPPTSRKEDLEAEEEYSSLCELLGSPEQRPGMQDPLSPKAPLICTKEEVEEVLDSKAGWGSPCHLSGESVILLGPTVGTESKVQSWFESSLSHMKPGEEGPDGERAPGDSTTSDASLAQKPNKPAVPEAPIAKKEPVPRGKSLRSRRVHRGLPEAEDSPCRAPVLPKDLLLPESCTGPPQGQMEGAGAPGRGASEGLPRMCTRSLTALSEPRTPGPPGLTTTPAPPDKLGGKQRAAFKSGKRVGKPSPKAASSPSNPAALPVASDSSPMGSKTKETDSPSTPGKDQRSMILRSRTKTQEIFHSKRRRPSEGRLPNCRATKKLLDNSHLPATFKVSSSPQKEGRVSQRARVPKPGAGSKLSDRPLHALKRKSAFMAPVPTKKRNLVLRSRSSSSSNASGNGGDGKEERPEGSPTLFKRMSSPKKAKPTKGNGEPATKLPPPETPDACLKLASRAAFQGAMKTKVLPPRKGRGLKLEAIVQKITSPSLKKFACKAPGASPGNPLSPSLSDKDRGLKGAGGSPVGVEEGLVNVGTGQKLPTSGADPLCRNPTNRSLKGKLMNSKKLSSTDCFKTEAFTSPEALQPGGTALAPKKRSRKGRAGAHGLSKGPLEKRPYLGPALLLTPRDRASGTQGASEDNSGGGGKKPKMEELGLASQPPEGRPCQPQTRAQKQPGHTNYSSYSKRKRLTRGRAKNTTSSPCKGRAKRRRQQQVLPLDPAEPEIRLKYISSCKRLRSDSRTPAFSPFVRVEKRDAFTTICTVVNSPGDAPKPHRKPSSSASSSSSSSSFSLDAAGASLATLPGGSILQPRPSLPLSSTMHLGPVVSKALSTSCLVCCLCQNPANFKDLGDLCGPYYPEHCLPKKKPKLKEKVRPEGTCEEASLPLERTLKGPECAAAATAGKPPRPDGPADPAKQGPLRTSARGLSRRLQSCYCCDGREDGGEEAAPADKGRKHECSKEAPAEPGGEAQEHWVHEACAVWTGGVYLVAGKLFGLQEAMKVAVDMMCSSCQEAGATIGCCHKGCLHTYHYPCASDAGCIFIEENFSLKCPKHKRLP

Some of the results follow. Binding of human transcription factors and regulators to the viral nucleoprotein by AlphaScreen, crude cell-free proteins, amounts not normalised, one pass. Fold of the Venus control; higher = more signal. No active / inactive call. Single-pass screen; sequences are the whole Swiss-Prot entries looked up by name.

The experiment deals with nucleoprotein N of Crimean-Congo hemorrhagic fever virus. The experiment is described as follows: AlphaScreen luminescence signal relative to Venus negative control (fold); higher = stronger binding to CCHFV N. The procedure: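 AlphaScreen binding of cell-free made, FLAG-GST-tagged human transcription factors and regulators (crude translation products) to biotinylated N protein; signal as fold of the FLAG-GST-Venus control. One pass.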
(In Alpha technology, singlet oxygen from a donor bead excites a nearby acceptor bead.)
On to B1, for which the AlphaScreen luminescence signal turned out to be 2.05.
In the case of B2 it was 7.86.
Next, B3: 1.49.
